According to PMC11708023:
Results are given in words; binding and its absence hold for the method and conditions named. In cells and extracts the contact can be indirect. Some entries that bind do so weakly or less than the wild type. For some assays here: Where a sequence is shown, tags or fusion partners need not be part of it.

Experiments:
[1] = target: B2-GFP (FHV B2 with GFP fused to its C-terminus) (Flock House virus) (UniProt P68831); assay: co-IP; S2 cells co-transfected with pMT-V5-CDK12 and B2-GFP, GFP or GFP-tagged B2 mutants; RIPA buffer (50 mM Tris-HCl pH 7.4, 150 mM NaCl, 5 mM MgCl2, 1 mM EDTA, 10% glycerol, 1% NP-40); anti-V5 or anti-GFP on protein A agarose, 4°C overnight; western blot
[2] = target: V5-tagged B2 of Flock House virus (FHV) (Flock House virus) (UniProt P68831); assay: co-IP; S2 cells transfected with pMT-B2-V5 for 48 h and infected with FHVΔB2; co-IP with anti-V5; western blot with anti-CDK12

Row | Binder | binding [1] | binding [2]
1 | V5-CDK12 (Drosophila cyclin-dependent kinase 12 with N-terminal V5 tag) (enzyme, UniProt Q9VP22 1-1157) MHASSAAATALVEYSDVSSEDFSDQEAGDLDADAGKGAGNIKKPKPAPDNQFSKGRLDAKPDKEGYDNYRSRRAEDSSDPVAAGSRQTSSSEATNPREEPSQASNTSKDELWGREIYMSSDSIDTDELEAEMKRQKRKKQKKEKHKHKSKKKSKKRKKKRAKSYSSIDSMSDNDINALLDRRYTPPTAPSKSNERTVSAAPSSFTPHNLKESSSPATPPPVRRPNTNSNYYGESSLETANSALGSNLQVTVTNKQSISNRLRSPPPSSRSSGNGPRFGNSPRTPPPSHYSSSGGGGVGSGSVVRDSRSSRYVNSPHKEDVSAHHRSSHDHGYQGRYSGAGSSSHDTRKVKRLSPELDRYNHQPSTPPHKRRKFSDGREVGLGNFEHSRHHSGKYERYSRDRYSRRSSRSPSVQHSRSRQSPSGGLSSGSNAFRHGGSHKHKYGTTVSSTPSHTTRTSKRASGTGTSGDRYSRSPRTSSRYMESSPPSPVGASGSHHYHHRRSPRMRQRTRGDSRRRSPSSASSESSASRSRSPTSRDLKHKREEYIKKISETSLFAELVKDRHKRQKALKEIIERQEENSNSNSNGALTINDNSSSVDGNTPNAADGRSAPGSGTPAAASTTSNGLQALGSKPDLDLNNIPMPNKQNDSVVSNPASNADVPDSVAQLKQPLLVPPFSASKNNIKPKSLTSLPLPPGMNVLDLAGARSPSPGQKKESDEKNVTSSGSANKSVLNLPMPPVIPGSEELSGDDDVIDSPEDFDAPAVGTVHGHGGGPGTTRQRPVILNRRDSRNNVRDWGERCVDVFEMIAQIGEGTYGQVYKARDHHTNDMVALKKVRLEHEKEGFPITAVREIKILRQLNHRNIVNLHEIVTDKQDAVEFRKDKGSFYLVFEYMDHDLMGLLESGMVDFNEENNASIMKQLLDGLNYCHKKNFLHRDIKCSNILMNNRGKVKLADFGLARLYNADDRERPYTNKVITLWYRPPELLLGEERYGPSIDVWSCGCILGELFVKRPLFQANAEMAQLETISKICGSPVPAVWPNVIKLPLFHTLKQKKTHRRRLREDFEFMPAPALDLLDKMLDLDPDKRITAEDALRSPWLRKINPDEMPTPQLPTWQDCHELWSKKRRRQMREQQESLPPTVIASTKYQQHGATMVGDA | binds | –
2 | Endogenous CDK12 of S2 cells (enzyme, UniProt Q9VP22 1-1157) MHASSAAATALVEYSDVSSEDFSDQEAGDLDADAGKGAGNIKKPKPAPDNQFSKGRLDAKPDKEGYDNYRSRRAEDSSDPVAAGSRQTSSSEATNPREEPSQASNTSKDELWGREIYMSSDSIDTDELEAEMKRQKRKKQKKEKHKHKSKKKSKKRKKKRAKSYSSIDSMSDNDINALLDRRYTPPTAPSKSNERTVSAAPSSFTPHNLKESSSPATPPPVRRPNTNSNYYGESSLETANSALGSNLQVTVTNKQSISNRLRSPPPSSRSSGNGPRFGNSPRTPPPSHYSSSGGGGVGSGSVVRDSRSSRYVNSPHKEDVSAHHRSSHDHGYQGRYSGAGSSSHDTRKVKRLSPELDRYNHQPSTPPHKRRKFSDGREVGLGNFEHSRHHSGKYERYSRDRYSRRSSRSPSVQHSRSRQSPSGGLSSGSNAFRHGGSHKHKYGTTVSSTPSHTTRTSKRASGTGTSGDRYSRSPRTSSRYMESSPPSPVGASGSHHYHHRRSPRMRQRTRGDSRRRSPSSASSESSASRSRSPTSRDLKHKREEYIKKISETSLFAELVKDRHKRQKALKEIIERQEENSNSNSNGALTINDNSSSVDGNTPNAADGRSAPGSGTPAAASTTSNGLQALGSKPDLDLNNIPMPNKQNDSVVSNPASNADVPDSVAQLKQPLLVPPFSASKNNIKPKSLTSLPLPPGMNVLDLAGARSPSPGQKKESDEKNVTSSGSANKSVLNLPMPPVIPGSEELSGDDDVIDSPEDFDAPAVGTVHGHGGGPGTTRQRPVILNRRDSRNNVRDWGERCVDVFEMIAQIGEGTYGQVYKARDHHTNDMVALKKVRLEHEKEGFPITAVREIKILRQLNHRNIVNLHEIVTDKQDAVEFRKDKGSFYLVFEYMDHDLMGLLESGMVDFNEENNASIMKQLLDGLNYCHKKNFLHRDIKCSNILMNNRGKVKLADFGLARLYNADDRERPYTNKVITLWYRPPELLLGEERYGPSIDVWSCGCILGELFVKRPLFQANAEMAQLETISKICGSPVPAVWPNVIKLPLFHTLKQKKTHRRRLREDFEFMPAPALDLLDKMLDLDPDKRITAEDALRSPWLRKINPDEMPTPQLPTWQDCHELWSKKRRRQMREQQESLPPTVIASTKYQQHGATMVGDA | – | binds
